Source: paper PMC9204602, “Optimized Anchor-Modified Peptides Targeting Mutated RAS Are Promising Candidates for Immunotherapy” (Frontiers in Immunology, 2022)
No end group written: not given here.

target: HLA-A*03:01 (Homo sapiens, UniProt P04439); experiment: MHC-I stabilization assay, T2 cells transfected with HLA-A*03:01; conditions: Table S2; T2 cells transfected with HLA-A*03:01, stabilization, serum-free RPMI, 4 hours, 37°C, peptide from 100 µM, flow cytometry MFI (GAP.A3); analyzed three times, mean; read-out: EC/IC50 (M) Binding assay: EC50, HLA-A*03:01

Compound | EC50
VVGARGVGK | 0.000695 M
CC(C)[C@H](N)C(=O)N[C@H](C(=O)NCC(=O)N[C@@H](C)C(=O)N[C@@H](CO)C(=O)NCC(=O)N[C@H](C(=O)NCC(=O)N[C@@H](CCCCN)C(=O)O)C(C)C)C(C)C | 0.000174 M
CC(C)[C@H](N)C(=O)N[C@H](C(=O)N[C@H](C(=O)NCC(=O)N[C@@H](C)C(=O)N[C@@H](CO)C(=O)NCC(=O)N[C@H](C(=O)NCC(=O)N[C@@H](CCCCN)C(=O)O)C(C)C)C(C)C)C(C)C | 7.8e-05 M
